# Some of the results follow.
# Experiments:
# Test in all cases: glycan array binding signal (z-score within array); higher = stronger binding
# Conditions in all cases: glycan notation: IUPAC condensed, linker removed
# [1] = target: Man(a1-2)Man(a1-3)[Man(a1-2)Man(a1-6)]Man
# In short: (§1)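 Glycan array data were curated from 3228 arrays in the Consortium for Functional Glycomics database and kept only where the protein sequence was available. Glycan names were converted to IUPAC-condensed notation, and columns mapping to the same glycan were averaged. The binding signal is a within-array Z-score, averaged across arrays of the same protein sequence at different concentrations or buffers and across linkers. Negative Z-scores can be read as non-binding.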
# [2] = target: Man(a1-2)Man(a1-3)[Man(a1-2)Man(a1-6)]Man(a1-6)[Man(a1-2)Man(a1-2)Man(a1-3)]Man
# In short: as §1
# [3] = target: Man(a1-2)Man(a1-3)[Man(a1-2)Man(a1-6)]Man(a1-6)[Man(a1-2)Man(a1-2)Man(a1-3)]Man(b1-4)GlcNAc(b1-4)GlcNAc
# In short: as §1
# [4] = target: Man(a1-2)Man(a1-3)[Man(a1-6)]Man(a1-6)[Man(a1-2)Man(a1-3)]Man(b1-4)GlcNAc(b1-4)GlcNAc
# In short: as §1
# [5] = target: Man(a1-2)Man(a1-6)[Man(a1-3)]Man(a1-6)[Man(a1-2)Man(a1-2)Man(a1-3)]Man
# In short: as §1
# [6] = target: Man(a1-2)Man(a1-6)[Man(a1-3)]Man(a1-6)[Man(a1-2)Man(a1-2)Man(a1-3)]Man(b1-4)GlcNAc(b1-4)GlcNAc
# In short: as §1
# Man(a1-3)[Man(a1-6)]Man = target: Man(a1-3)[Man(a1-6)]Man
# In short: as §1
# [7] = target: Man(a1-3)[Man(a1-6)]Man(a1-6)[Man(a1-2)Man(a1-3)]Man(b1-4)GlcNAc(b1-4)GlcNAc
# In short: as §1
# [8] = target: Man(a1-3)[Man(a1-6)]Man(a1-6)[Man(a1-3)]Man
# In short: as §1
# [9] = target: Man(a1-3)[Man(a1-6)]Man(a1-6)[Man(a1-3)]Man(b1-4)GlcNAc(b1-4)GlcNAc
# In short: as §1
# [10] = target: Man(a1-3)[Man(a1-6)]Man(b1-4)GlcNAc(b1-4)GlcNAc
# In short: as §1
# [11] = target: Man(a1-3)[Man(a1-6)]Man(b1-4)GlcNAc(b1-4)[Fuc(a1-6)]GlcNAc
# In short: as §1
# Man(a1-6)Man = target: Man(a1-6)Man
# In short: as §1
# Man(b1-4)GlcNAc = target: Man(b1-4)GlcNAc
# In short: as §1
# MurNAc(b1-4)GlcNAc = target: MurNAc(b1-4)GlcNAc
# In short: as §1
# Neu5Ac(a2-3)Gal = target: Neu5Ac(a2-3)Gal
# In short: as §1
# [12] = target: Neu5Ac(a2-3)Gal(b1-3)GalNAc
# In short: as §1
# [13] = target: Neu5Ac(a2-3)Gal(b1-3)GalNAc(b1-3)Gal(a1-4)Gal(b1-4)Glc
# In short: as §1
# [14] = target: Neu5Ac(a2-3)Gal(b1-3)GalNAc(b1-4)Gal(b1-4)Glc
# In short: as §1
# [15] = target: Neu5Ac(a2-3)Gal(b1-3)GalNAc(b1-4)[Neu5Ac(a2-3)]Gal(b1-4)Glc
# In short: as §1
# [16] = target: Neu5Ac(a2-3)Gal(b1-3)GalNAc(b1-4)[Neu5Ac(a2-8)Neu5Ac(a2-3)]Gal(b1-4)Glc
# In short: as §1
# [17] = target: Neu5Ac(a2-3)Gal(b1-3)GalNAc6S
# In short: as §1
# [18] = target: Neu5Ac(a2-3)Gal(b1-3)GlcNAc
# In short: as §1
# [19] = target: Neu5Ac(a2-3)Gal(b1-3)GlcNAc(b1-2)Man
# In short: as §1
# [20] = target: Neu5Ac(a2-3)Gal(b1-3)GlcNAc(b1-2)Man(a1-3)[GlcNAc(b1-4)][Neu5Ac(a2-3)Gal(b1-3)GlcNAc(b1-2)Man(a1-6)]Man(b1-4)GlcNAc(b1-4)GlcNAc
# In short: as §1
# [21] = target: Neu5Ac(a2-3)Gal(b1-3)GlcNAc(b1-2)Man(a1-3)[Neu5Ac(a2-3)Gal(b1-3)GlcNAc(b1-2)Man(a1-6)]Man(b1-4)GlcNAc(b1-4)GlcNAc
# In short: as §1
# [22] = target: Neu5Ac(a2-3)Gal(b1-3)GlcNAc(b1-2)[Neu5Ac(a2-3)Gal(b1-3)GlcNAc(b1-4)]Man(a1-6)[Neu5Ac(a2-3)Gal(b1-3)GlcNAc(b1-2)Man(a1-3)]Man(b1-4)GlcNAc(b1-4)GlcNAc
# In short: as §1
# [23] = target: Neu5Ac(a2-3)Gal(b1-3)GlcNAc(b1-3)Gal(b1-3)GlcNAc
# In short: as §1
# [24] = target: Neu5Ac(a2-3)Gal(b1-3)GlcNAc(b1-3)Gal(b1-4)GlcNAc
# In short: as §1
# [25] = target: Neu5Ac(a2-3)Gal(b1-3)GlcNAc(b1-3)GalNAc
# In short: as §1
# [26] = target: Neu5Ac(a2-3)Gal(b1-3)GlcNAc(b1-6)GalNAc
# In short: as §1
# [27] = target: Neu5Ac(a2-3)Gal(b1-3)GlcNAc6S
# In short: as §1
# [28] = target: Neu5Ac(a2-3)Gal(b1-3)[Fuc(a1-4)]GlcNAc
# In short: as §1
# [29] = target: Neu5Ac(a2-3)Gal(b1-3)[Fuc(a1-4)]GlcNAc(b1-3)Gal(b1-3)[Fuc(a1-4)]GlcNAc
# In short: as §1
# [30] = target: Neu5Ac(a2-3)Gal(b1-3)[Fuc(a1-4)]GlcNAc(b1-3)Gal(b1-4)[Fuc(a1-3)]GlcNAc
# In short: as §1
# [31] = target: Neu5Ac(a2-3)Gal(b1-3)[GlcNAc(b1-6)]GalNAc
# In short: as §1
# [32] = target: Neu5Ac(a2-3)Gal(b1-3)[Neu5Ac(a2-6)]GalNAc
# In short: as §1
# [33] = target: Neu5Ac(a2-3)Gal(b1-3)[Neu5Ac(a2-6)]GlcNAc(b1-3)[Fuc(a1-3)[Gal(b1-4)]GlcNAc(b1-6)]Gal(b1-4)Glc
# In short: as §1
# [34] = target: Neu5Ac(a2-3)Gal(b1-3)]Neu5Ac(a2-3)Gal(b1-4)]GlcNAc
# In short: as §1
# Neu5Ac(a2-3)Gal(b1-4)Glc = target: Neu5Ac(a2-3)Gal(b1-4)Glc
# In short: as §1
# [35] = target: Neu5Ac(a2-3)Gal(b1-4)GlcNAc
# In short: as §1
# [36] = target: Neu5Ac(a2-3)Gal(b1-4)GlcNAc(b1-2)Man
# In short: as §1
# [37] = target: Neu5Ac(a2-3)Gal(b1-4)GlcNAc(b1-2)Man(a1-3)[GlcNAc(b1-4)][Neu5Ac(a2-3)Gal(b1-4)GlcNAc(b1-2)Man(a1-6)]Man(b1-4)GlcNAc(b1-4)GlcNAc
# In short: as §1
# [38] = target: Neu5Ac(a2-3)Gal(b1-4)GlcNAc(b1-2)Man(a1-3)[Neu5Ac(a2-3)Gal(b1-4)GlcNAc(b1-2)Man(a1-6)]Man(b1-4)GlcNAc(b1-4)GlcNAc
# In short: as §1
# [39] = target: Neu5Ac(a2-3)Gal(b1-4)GlcNAc(b1-2)Man(a1-3)[Neu5Ac(a2-3)Gal(b1-4)GlcNAc(b1-2)Man(a1-6)]Man(b1-4)GlcNAc(b1-4)[Fuc(a1-6)]GlcNAc
# In short: as §1
binder,measurement,setting,value
Mg1lysM (Mycosphaerella graminicola) (protein) QRNPITITPQFDCGATNSQQYVARSGDTLTKIAQEIYHDVVGVCDIARANNLADPNRIDAGTPYTIPINCQTYDRNSCL,glycan array binding signal (z-score),[1],-0.06
same,glycan array binding signal (z-score),[2],-0.068
same,glycan array binding signal (z-score),[3],-0.056
same,glycan array binding signal (z-score),[4],-0.085
same,glycan array binding signal (z-score),[5],-0.062
same,glycan array binding signal (z-score),[6],-0.078
same,glycan array binding signal (z-score),Man(a1-3)[Man(a1-6)]Man,-0.059
same,glycan array binding signal (z-score),[7],-0.083
same,glycan array binding signal (z-score),[8],-0.076
same,glycan array binding signal (z-score),[9],-0.077
same,glycan array binding signal (z-score),[10],-0.076
same,glycan array binding signal (z-score),[11],-0.08
same,glycan array binding signal (z-score),Man(a1-6)Man,-0.035
same,glycan array binding signal (z-score),Man(b1-4)GlcNAc,-0.06
same,glycan array binding signal (z-score),MurNAc(b1-4)GlcNAc,-0.059
same,glycan array binding signal (z-score),Neu5Ac(a2-3)Gal,-0.083
same,glycan array binding signal (z-score),[12],-0.058
same,glycan array binding signal (z-score),[13],-0.054
same,glycan array binding signal (z-score),[14],-0.102
same,glycan array binding signal (z-score),[15],-0.086
same,glycan array binding signal (z-score),[16],-0.042
same,glycan array binding signal (z-score),[17],-0.073
same,glycan array binding signal (z-score),[18],-0.071
same,glycan array binding signal (z-score),[19],-0.056
same,glycan array binding signal (z-score),[20],-0.076
same,glycan array binding signal (z-score),[21],-0.047
same,glycan array binding signal (z-score),[22],0.149
same,glycan array binding signal (z-score),[23],-0.081
same,glycan array binding signal (z-score),[24],-0.061
same,glycan array binding signal (z-score),[25],-0.069
same,glycan array binding signal (z-score),[26],-0.051
same,glycan array binding signal (z-score),[27],-0.05
same,glycan array binding signal (z-score),[28],-0.096
same,glycan array binding signal (z-score),[29],-0.073
same,glycan array binding signal (z-score),[30],-0.071
same,glycan array binding signal (z-score),[31],-0.083
same,glycan array binding signal (z-score),[32],-0.079
same,glycan array binding signal (z-score),[33],-0.075
same,glycan array binding signal (z-score),[34],-0.077
same,glycan array binding signal (z-score),Neu5Ac(a2-3)Gal(b1-4)Glc,-0.076
same,glycan array binding signal (z-score),[35],-0.068
same,glycan array binding signal (z-score),[36],-0.068
same,glycan array binding signal (z-score),[37],-0.076
same,glycan array binding signal (z-score),[38],-0.051
same,glycan array binding signal (z-score),[39],-0.06

# From the supplement of paper PMC8728848
